Consider 172 sequences from PMC10668032.

Some of the results follow. At the low end of the ranking the order means little.

This assay addresses SIX1 homeodomain (reference allele) (UniProt Q15475). As to the kind of experiment: universal protein binding microarray. The following applies: Universal all-10-mer PBM (8x60K, AMADID 030236), 300 nM GST-tagged protein, Alexa Fluor 488 anti-GST; buffer, salt, pH and temperature not stated; high values mean tight binding; most listed sequences are background and not binding sites; double strand, one strand shown.
As for GGCTTGTA, the binding signal was -0.144 E-score. Consider GGAGATAC, for which the binding signal was found to be 0.41 E-score.

On to CGGGACAG, for which the binding signal was -0.0787 E-score. Turning to ATAACCTG, the binding signal came to 0.0653 E-score. As for CTTAAGGC, the binding signal is -0.141 E-score.

Regarding AAACAAAG, the binding signal was -0.175 E-score. Then ATATCCGA, with 0.429 E-score; and AGACCGAG, with -0.0134 E-score. Take CGCCATAC: the binding signal was determined as 0.0225 E-score. For GTGAGCAC, the binding signal is -0.0873 E-score.

CAAGTGCG: the binding signal is -0.0204 E-score. AAGGGGAT: the binding signal was determined as 0.323 E-score.

As to ACTGAACC, the binding signal was -0.00103 E-score. The same measure for AGAGATAT: 0.335 E-score; for CTTAAGAA: -0.187 E-score; for CTTGCTGC: -0.182 E-score. With CCTCCCAA, the binding signal was -0.166 E-score. For TAAGCGGA, the binding signal was -0.041 E-score. The same measure for AATCTGTA: 0.0595 E-score.

In the case of CTGTTGCC, the binding signal is -0.293 E-score. Then ATTCTGTC, with 0.0206 E-score; and AAGCTTTA, with -0.129 E-score. The same measure for GGAAAACA: -0.102 E-score; for ATATCCAG: 0.373 E-score. Then GCACTAAC, with -0.214 E-score; and TAATGGTA, with 0.141 E-score.

Turning to CACGAGGA, the binding signal came out at 0.037 E-score. The same measure for ATCGTCAT: 0.22 E-score; for CGTCGAAC: -0.28 E-score; for GCAGTACC: 0.0127 E-score.

GCGGAACA: the binding signal was -0.16 E-score. The same measure for TAACAGAA: -0.235 E-score. On to AGTAGGAA, for which the binding signal was -0.161 E-score. Take CGCTTACG: the binding signal was -0.159 E-score. Take CGTCCGGA: the binding signal came out at 0.0517 E-score.

With CACAGTAG, the binding signal is -0.15 E-score. Then AGGTCAGG, with -0.103 E-score. For AGAGGGTA, the binding signal amounted to 0.267 E-score. Turning to AATCGCCC, the binding signal was -0.112 E-score. With AACGATCA, the binding signal is 0.207 E-score. Then AACTGTGT, with -0.145 E-score; and GAAGCTGA, with 0.0247 E-score; and CTTAGTAA, with -0.0628 E-score. The same measure for CGGTTTAG: 0.0351 E-score; for CCACTCGG: -0.0298 E-score. On to CAAGGATA, for which the binding signal came to 0.342 E-score. Then AGAATCTA, with -0.00801 E-score; and GGAAGTCA, with -0.18 E-score; and CTCGTGCC, with -0.155 E-score.

For the sequence CGTAAAAG, the binding signal is -0.225 E-score. Consider AAGCTTAT, for which the binding signal turned out to be 0.0804 E-score.

With GACGCTCA, the binding signal was -0.139 E-score.

As for GTTGGTAA, the binding signal amounted to 0.00492 E-score. The same measure for CCCCGTAA: -0.0525 E-score; for ATTTGCGA: -0.136 E-score. Then TCGGCGAA, with 0.115 E-score; and AAAAAGAG, with -0.181 E-score. As to CGGATGAC, the binding signal is 0.173 E-score. As for ACGCGGCG, the binding signal was -0.0208 E-score. With ATCGGTGC, the binding signal was found to be 0.194 E-score. Consider GAATGTGA, for which the binding signal is -0.143 E-score. Turning to CGGCTTTA, the binding signal is -0.0572 E-score. Consider CGTGTAAC, for which the binding signal was 0.0592 E-score. The same measure for GTCGAAAC: 0.139 E-score; for AGGGAGGA: 0.0332 E-score. For the sequence CGGAAAGA, the binding signal is -0.0696 E-score. Then AGGTGCAG, with -0.142 E-score; and GAGGATTA, with 0.118 E-score; and GATATACA, with 0.384 E-score. The same measure for CGGTACGC: -0.0526 E-score. The same measure for ATGAGTGG: 0.0241 E-score. For AACTTCCA, the binding signal was -0.149 E-score.

On to CAAGCGTG, for which the binding signal was -0.0701 E-score.

As for CCATATAC, the binding signal came out at 0.29 E-score. Turning to AGTGGATA, the binding signal was found to be 0.338 E-score. Then ATCCACTA, with 0.263 E-score; and ACTGGATC, with 0.33 E-score; and CTCCTGGA, with -0.14 E-score. The same measure for GAACTCGC: -0.152 E-score; for GCGTTCAC: -0.168 E-score. Take AGTTCTCC: the binding signal was -0.0263 E-score. With CATCGGTA, the binding signal was 0.086 E-score. The same measure for ACGTATCA: 0.474 E-score.

Consider CAGTCGAG, for which the binding signal was -0.173 E-score. The same measure for AATTTGTA: -0.0679 E-score.

AAATCTGG: the binding signal was -0.105 E-score. Then GGGCCATA, with -0.0361 E-score; and CTCAGGAG, with -0.154 E-score.

For the sequence AGAACAGG, the binding signal was -0.059 E-score. Then CGCAGCCG, with -0.159 E-score. On to CTCTAGGC, for which the binding signal was -0.114 E-score. Consider GCGCAGCC, for which the binding signal was -0.252 E-score. Then TGCAGCAA, with 0.0497 E-score.

For the sequence CTCCCCCA, the binding signal is -0.11 E-score.

On to GCGTAAGC, for which the binding signal is -0.134 E-score.

As to CACCACGA, the binding signal came to 0.102 E-score. Then ACAAAATA, with -0.179 E-score; and ATTGAAAT, with -0.119 E-score. The same measure for CATGAAAA: -0.264 E-score; for CAATCTCC: 0.0442 E-score; for GCGTATTA: 0.161 E-score. For the sequence CAGGATAC, the binding signal was 0.365 E-score. Then GGGCTAGA, with 0.209 E-score; and ACAAATGT, with -0.304 E-score. Then GGTTAGCA, with -0.232 E-score; and GCGTGAAC, with -0.108 E-score; and AGCGGTAT, with 0.343 E-score. The same measure for AAATCGGC: -0.173 E-score; for ATTTAAGC: -0.136 E-score; for GAATCTAC: -0.112 E-score.

For TCGGATCA, the binding signal was found to be 0.438 E-score. Then AGCCTCGA, with -0.168 E-score. Then AGCGTTCG, with -0.294 E-score. Then CATCACAC, with 0.1 E-score; and CGCGTCCG, with -0.0858 E-score; and CAAATCCG, with 0.0625 E-score.

Regarding GCACATAA, the binding signal is -0.0061 E-score. As for CAGAAATA, the binding signal was 0.0551 E-score. The same measure for ATAAGCCA: 0.0443 E-score; for CATGTGCA: -0.154 E-score; for GTGGCCTA: -0.0647 E-score. With ATTGCCAA, the binding signal is -0.0122 E-score. Then GGAGCCCA, with -0.208 E-score; and TCACTGAA, with -0.131 E-score.

As for AGTTACAG, the binding signal is -0.138 E-score. Turning to GGTTTGAA, the binding signal is -0.0148 E-score. Then CGGCTAGA, with -0.00509 E-score; and TACATTGA, with -0.00202 E-score. The same measure for CGGTTTCC: 0.052 E-score; for ACGCACGG: -0.0589 E-score; for AGTGAACG: -0.15 E-score. The same measure for GAGCAACC: -0.284 E-score; for CCTTATCG: -0.0678 E-score. As for CGGTGTCA, the binding signal is 0.471 E-score.

As to CGCGAGCA, the binding signal was -0.0385 E-score. The same measure for AACATATG: -0.00428 E-score. On to CGTAAGAG, for which the binding signal was -0.13 E-score. As for AAGGGATG, the binding signal was -0.00953 E-score. On to CTGCAAAC, for which the binding signal was -0.0982 E-score. Then ACCCTCAG, with 0.0125 E-score. In the case of ACAAGGAA, the binding signal was -0.183 E-score. The same measure for TATCCCGA: 0.315 E-score; for ACGTAGCT: -0.0152 E-score; for CGAGGGAG: -0.146 E-score. Then AGTTCAGA, with -0.0763 E-score; and GAAGGGAA, with -0.168 E-score.

CACCATTC: the binding signal was 0.107 E-score. On to AGCGGCAA, for which the binding signal is -0.151 E-score. The same measure for AGAAGCAG: -0.0573 E-score; for GAAGTCCA: -0.169 E-score; for GAGACAAA: -0.0705 E-score. On to TCAATCGA, for which the binding signal is -0.0537 E-score. As to GTAAAATA, the binding signal is -0.103 E-score. Then AAGAAGTA, with -0.0535 E-score; and TATGGAGA, with 0.0397 E-score.

With GCAACCTA, the binding signal is -0.0971 E-score.

With AGTGCTAG, the binding signal stood at 0.0542 E-score. Turning to GGCTAAAA, the binding signal is -0.239 E-score. For ATCAAGGA, the binding signal is 0.174 E-score. As for CGAACCCC, the binding signal was found to be 0.0469 E-score. For ATTGCCAC, the binding signal is -0.206 E-score. The same measure for ATTGGAGA: 0.0346 E-score. Then GATCAATC, with 0.366 E-score. Then GAACATTA, with -0.212 E-score; and ATACGTTA, with 0.164 E-score. Take AAGTGCGA: the binding signal was -0.0732 E-score. The same measure for CAAATCAG: -0.171 E-score; for TCAAGCAA: -0.214 E-score.

As to ATCGCGGA, the binding signal was 0.232 E-score. The same measure for ACACGAGG: 0.0992 E-score. For the sequence CCTCATGA, the binding signal was determined as 0.024 E-score. The same measure for AGTGAGCA: -0.0864 E-score.
